The whole screen tested about 150,000 compounds, of which about 6,500 (4.3%) were called active. The shares of active, inactive and inconclusive entries below differ from those in the screen. Calls follow the shape of the dose curve; as a rule, active = well fitted inhibition curve with a large enough effect (not every such curve was filed as active); inconclusive = small, poorly fitted or top-dose-only effect, or another doubt; inactive = no such curve, though single readings can be large or run the other way. Where the call is inconclusive, the potency comes from a doubtful curve fit. Some structures have more than one record in an assay (separate samples or runs), and their calls can disagree.
Biological target: 15-hydroxyprostaglandin dehydrogenase [NAD(+)] (Homo sapiens) (UniProt P15428)
Experiment: qHTS Assay for Inhibitors of HPGD (15-Hydroxyprostaglandin Dehydrogenase)
Conditions: purified HPGD, NADH fluorescence kinetic, PGE2 substrate; activity change, negative = inhibition: active compounds read low
Summary of the method: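 20 nM HPGD preincubated 15 min at room temperature with compound in 50 mM Tris-HCl pH 8, 0.01% Tween 20. Started with 1 mM NAD+ and 30 uM prostaglandin E2; NADH fluorescence (360/450 nm) read 5 times over 30-s intervals, last minus first.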
% is scaled to controls: 0 for no effect and ±100 for the full control effect; potency is read from the fitted curve at half-maximal effect; tags tell the direction and shape of the fitted curve.

Sequence of UniProt P15428 (P15428 whole entry, looked up): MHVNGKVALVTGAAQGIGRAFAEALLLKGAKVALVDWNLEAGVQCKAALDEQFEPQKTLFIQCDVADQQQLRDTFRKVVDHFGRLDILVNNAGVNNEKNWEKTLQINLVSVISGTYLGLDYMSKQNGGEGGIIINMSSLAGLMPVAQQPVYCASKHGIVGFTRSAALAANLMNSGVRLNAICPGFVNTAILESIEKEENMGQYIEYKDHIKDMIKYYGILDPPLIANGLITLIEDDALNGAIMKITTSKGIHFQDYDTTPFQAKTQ

Activity change, negative = inhibition, inactive:
c1ccc(NCc2cccnc2)cc1 -5.72%
CCn1c(CCNC(=O)c2ccc(Cl)cc2Cl)n[nH]c1=S -11.2%
CC(=O)C1=C(C)NC(SCC(=O)c2ccc(Cl)cc2)=C(C#N)C1CC(C)C (centres undefined) -20.9%
O=C(N/N=C/c1ccc([N+](=O)[O-])o1)c1ccc(O)cc1 -29.7%
Cc1ccc(NC(=O)CN2C(=O)S/C(=C\c3cccn3C)C2=O)cc1 13.9%
C(=C\c1nnc2c3ccccc3ncn12)/c1ccccc1 -30%
C=C1CCC(O)C/C1=C\C=C1/CCCC2(C)C1CCC2C(C)/C=C/C(C)C(C)C (centres undefined) -7.15%
COc1cc(/C=C(\NC(=O)c2ccccc2)C(=O)NCC(=O)O)c([N+](=O)[O-])cc1OC -20.3%
C[C@@]12CC[C@@H]3[C@H](CCC4=CC(=O)CC[C@]43C)[C@@H]1CC[C@@H]2C(=O)COS(=O)(=O)c1ccc(Br)cc1 -13.7%
N#C/C(=C(/O)CN1CCN(c2ccccc2F)CC1)c1nc(-c2ccc(Cl)cc2)cs1 -9.47%
CCOc1ccc(NC(=O)CC2C(=O)N(C)C(=S)N2CCCc2ccccc2)cc1 (centres undefined) -4.68%
CCC(=O)Nc1ccc2c(c1)ncn2-c1ccccc1OC -15.8%
Cc1nn(-c2ccc(Cl)c(Cl)c2)c(=O)c2ccccc12 -17%
O=C1CC(N2CCN(c3ccc(Cl)c(Cl)c3)CC2)C(=O)N1 (centres undefined) -6.41%
C=CCNS(=O)(=O)c1nc(C)c(Cl)c(C)c1C#N -13%

Potency, inconclusive:
Cn1nc(-c2ccc(Cl)cc2)nc2c(=O)n(C)c(=O)nc1-2 31.6 µM [inhibitor, partial curve]
NS(=O)(=O)c1ccc(NC(=O)COC(=O)c2c3c(nc4ccccc24)/C(=C\c2ccc4c(c2)OCO4)CCC3)cc1 31.6 µM [inhibitor, partial curve]
CCOC(=O)c1ccn(-c2nc(-c3ccco3)cc(C(F)(F)F)n2)n1 35.5 µM [inhibitor, single point]
COc1cc2c(cc1OC)/C(=C/C(=O)N1CCOCC1)NC(C)(C)C2 28.2 µM [inhibitor, partial curve]
CCC(C)(C)n1nnnc1C(c1cc2cccc(C)c2[nH]c1=O)N1CCN(C(=O)c2ccco2)CC1 (centres undefined) 22.4 µM [inhibitor, partial curve]
FC(F)(F)c1nc2nc(Cl)c(Cl)nc2n1CCCN1CCOCC1 3.55 µM [inhibitor, partial curve]
Cc1ccc(-c2nn(-c3ccccc3)c3[nH]c(=O)c(CNCCN(C)C)cc23)cc1 31.6 µM [inhibitor, partial curve]
COCCn1c(=O)c(-c2cc(F)cc(F)c2)nc2cnc(Oc3cccc(Cl)c3)nc21 7.94 µM [inhibitor, partial curve]
COc1ccc(/C=C2\CCc3ccccc3C2=O)cc1OC 25.1 µM [inhibitor, partial curve]
c1ccc(-c2cc(N3CCCCCC3)n[nH]2)cc1 28.2 µM [inhibitor, partial curve]
CCn1c(SCC(=O)N/N=C/C=C\c2ccco2)nc2ccccc21 31.6 µM [inhibitor, single point]
Clc1cccc(-c2nc3nc4ccccc4nc3n2Cc2ccccc2)c1 39.8 µM [inhibitor, single point]
O=C1c2cccnc2C(=O)N1Cc1ccc2c(c1)OCO2 22.4 µM [inhibitor, partial curve]
S=c1nc(-c2ccccc2)n(Cc2ccco2)c2c1CCCC2 28.2 µM [inhibitor, partial curve]
COc1ccc2c(c1)c(=O)oc1cc(OCC(=O)N3CCC(C)CC3)ccc12 4.47 µM [inhibitor, full curve]
CCCn1c(=O)c(C(=O)Nc2ccccc2C(=O)OC)c(O)c2ccccc21 28.2 µM [inhibitor, single point]
NC(=O)C1CCN(C(=O)CCCCCn2c(=O)[nH]c3ccsc3c2=O)CC1 12.6 µM [inhibitor, partial curve]
CCCn1c(-c2ccc(F)cc2)nc2c(NCCN3CCCC3)nc(C)nc21 28.2 µM [inhibitor, partial curve]
COc1ccccc1-c1ccc(/C=C2/C=C(CC(C)C)OC2=O)o1 25.1 µM [inhibitor, partial curve]
Cc1cccn2c(=O)c3cc(C#N)c(=NC(=O)c4ccncc4)n(Cc4ccco4)c3nc12 22.4 µM [inhibitor, partial curve]
O=c1nc(-c2ccccc2)cc(-c2ccccc2)[nH]1 28.2 µM [inhibitor, partial curve]
Cc1nc2ccccc2n1C(=O)c1ccc(Cl)cc1[N+](=O)[O-] 39.8 µM [inhibitor, single point]
CC(=O)[C@H]1[C@H](c2cccc(Cl)c2)C(C#N)(C#N)[C@@H]2c3ccccc3C=CN21 39.8 µM [inhibitor, partial curve, poor fit]
CCNc1cc2oc(=O)c(CN3CCOCC3)c(C)c2cc1C 31.6 µM [inhibitor, partial curve]
CCc1nc(SCC(=O)c2cccc([N+](=O)[O-])c2)n[nH]1 31.6 µM [inhibitor, partial curve]
c1ccc(N2N=C(c3cccs3)CC2c2ccco2)cc1 (centres undefined) 31.6 µM [inhibitor, partial curve]

Potency, active:
Cc1cccc(Nc2cc(Cl)nc(SCC(=O)O)n2)c1C 25.1 µM
CCOc1ccc(C(=O)OCc2nnc(-c3cccs3)o2)cc1OC 25.1 µM
Cc1ccc2sc(NNC(=O)c3ccc4c(c3)OCCO4)nc2c1C 11.2 µM

From PubChem BioAssay AID894 (National Center for Advancing Translational Sciences (NCATS), 2007)
